Screen size: about 310,000 compounds; about 2,200 (0.71%) showed an effect of 50% or more. Effects have a minus sign here. Some of the results follow.
The molecules below were run against human ether-à-go-go-related gene (hERG) potassium channel (human, UniProt Q12809) (assay: primary screen, population patch clamp on CHO cells stably expressing hERG).
human ether-à-go-go-related gene (hERG) potassium channel, sequence (Q12809 whole entry, looked up): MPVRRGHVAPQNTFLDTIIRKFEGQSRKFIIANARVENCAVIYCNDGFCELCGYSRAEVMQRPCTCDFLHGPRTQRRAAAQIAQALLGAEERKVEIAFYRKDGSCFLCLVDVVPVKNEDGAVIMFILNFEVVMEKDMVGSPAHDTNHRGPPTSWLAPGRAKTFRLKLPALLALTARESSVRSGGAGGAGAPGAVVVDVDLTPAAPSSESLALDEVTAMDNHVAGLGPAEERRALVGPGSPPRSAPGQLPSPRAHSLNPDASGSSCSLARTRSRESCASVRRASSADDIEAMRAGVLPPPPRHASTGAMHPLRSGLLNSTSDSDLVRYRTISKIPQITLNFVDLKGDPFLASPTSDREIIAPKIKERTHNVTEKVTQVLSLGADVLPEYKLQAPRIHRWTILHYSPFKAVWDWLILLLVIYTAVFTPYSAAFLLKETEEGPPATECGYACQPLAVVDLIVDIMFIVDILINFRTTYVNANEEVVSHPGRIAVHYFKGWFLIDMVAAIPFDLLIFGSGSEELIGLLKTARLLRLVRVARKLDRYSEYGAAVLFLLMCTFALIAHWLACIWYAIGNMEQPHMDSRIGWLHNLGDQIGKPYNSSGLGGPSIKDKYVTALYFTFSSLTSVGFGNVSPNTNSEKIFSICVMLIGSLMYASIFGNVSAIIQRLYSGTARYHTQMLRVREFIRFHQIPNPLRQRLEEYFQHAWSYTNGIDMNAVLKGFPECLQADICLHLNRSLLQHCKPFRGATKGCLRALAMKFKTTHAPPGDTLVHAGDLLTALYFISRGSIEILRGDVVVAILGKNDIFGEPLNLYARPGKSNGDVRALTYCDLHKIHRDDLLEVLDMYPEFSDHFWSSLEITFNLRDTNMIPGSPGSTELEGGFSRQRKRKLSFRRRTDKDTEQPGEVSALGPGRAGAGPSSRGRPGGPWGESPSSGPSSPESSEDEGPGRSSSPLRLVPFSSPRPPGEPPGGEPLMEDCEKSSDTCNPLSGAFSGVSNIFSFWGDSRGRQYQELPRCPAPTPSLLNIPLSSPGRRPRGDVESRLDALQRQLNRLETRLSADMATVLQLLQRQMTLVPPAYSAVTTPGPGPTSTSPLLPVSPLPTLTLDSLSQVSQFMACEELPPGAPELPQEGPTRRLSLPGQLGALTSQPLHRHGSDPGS

Row | SMILES | hERG current change (%, negative = inhibition) at 1uM [%]
1 | Cc1ccc(C)c(S(=O)(=O)N2CCN(C(=O)c3ccncc3)CC2)c1 | 13.9
2 | Cc1ccc(S(=O)(=O)N2CCN(C(=O)CSc3ncn[nH]3)CC2)cc1 | 9.32
3 | COc1cc(OC)cc(C(=O)N2CCC(C(=O)c3ccc(F)cc3)CC2)c1 | -1.28
4 | Cc1cc(NC(=O)CSCc2ccccc2)no1 | 14.4
5 | CCN=C1SC(C(=O)Nc2cccc(C(=O)O)c2)CC(=O)N1CC (centres unmarked) | 2.81
6 | COCCNC(=O)CN1CCN(S(=O)(=O)c2ccc3c(c2)CCCC3)CC1 | 6.76
7 | CN(C)S(=O)(=O)c1ccc(C(=O)Nc2ccc3c(c2)CCC3)cc1 | 6.27
8 | CCOC(=O)C(=O)NNc1ccc(Cl)cc1 | 10.4
9 | CC(C)(C)c1csc(NC(=O)CSC2=NCCS2)n1 | 4.1
10 | CCOC(=O)/C(C#N)=C/Nc1ccsc1C(C)=O | 8.88
11 | Cc1ccc(COC(=O)CCN=C2NS(=O)(=O)c3ccccc32)cc1 | -0.276
12 | COc1ccc(NC(=O)c2sc3nc(N4CCOCC4)c4c(c3c2N)CCCC4)c(OC)c1 | 18.7
13 | COc1ccc2cc([C@H](C)C(=O)N(C)Cc3ccccc3N3CCCC3)ccc2c1 | 12.8
14 | COc1ccc(CN(C)CC(=O)Nc2cc(OC)c([N+](=O)[O-])cc2C)c(OC)c1 | -6.94
15 | CC(=O)Nc1ccc(NC(=O)CSc2cn(CC(=O)N3CCOCC3)c3ccccc23)cc1 | 15.8
16 | COc1ccc(CCNC(=O)/C(C#N)=C2\N=C(NC(=O)c3cccs3)c3ccccc32)cc1 | 7.76
17 | Cc1ccccc1C(=O)NNC(=O)C1CC(=O)N(Cc2ccccc2)C1 (centres unmarked) | -1.12
18 | CSc1ncccc1C(=O)Nc1ccc(OC(F)(F)F)cc1 | 11.4
19 | O=c1[nH]c(CN2CCN(Cc3ccc4c(c3)OCO4)CC2)nc2ccccc12 | -28
20 | CC(C)OCCCNc1nc2c(-c3ccccc3)nnn2c2ccccc12 | 17.7
21 | COc1cc(C)c(Cl)cc1S(=O)(=O)n1cnc2ccccc21 | 10.8
22 | O=C(Nc1cccc(F)c1)c1c(O)c2ccccc2[nH]c1=O | 13.4
23 | CC1CCc2c(sc(NC(=O)COC(=O)c3ccc(O)cc3)c2C#N)C1 (centres unmarked) | 13.3

Row | SMILES | hERG current change (%, negative = inhibition) at 1uM [%]
24 | COc1ccccc1C(=O)NNC(=O)C(=O)Nc1ccc(C)c(Cl)c1 | 11.5
25 | CCOC(=O)C1CCCN(C(=O)c2cc(-c3ccc(F)cc3)nc3ccccc23)C1 (centres unmarked) | 9.67
26 | CCOC(=O)C1(Cc2cccc(OC)c2)CCCN(Cc2cc(C(C)C)n[nH]2)C1 (centres unmarked) | 2.83
27 | C=CCSc1nc(N)cc(=O)[nH]1 | 1.41
28 | CC(=O)Nc1ccc(S(=O)(=O)Nc2cc(C)cn(Cc3ccccc3)c2=O)cc1 | 10.5
29 | CS(=O)(=O)c1ccc(Cl)c(NC(=O)COC(=O)CNC(=O)c2ccccc2)c1 | 2.22
30 | O=C(O)c1oc2ccccc2c1CSc1ccccn1 | 12
31 | O=[N+]([O-])c1cc(F)c(N2CCCCCC2)cc1N1CCNCC1 | 1.26
32 | CC(C(=O)N(C)C1CCS(=O)(=O)C1)N1C(=O)/C(=C/c2ccc(F)cc2)SC1=S (centres unmarked) | -8.7
33 | COCCCNC(=O)C1CCN(S(=O)(=O)c2c(C)noc2/C=C\c2ccc(OC)cc2)CC1 | -0.111
34 | Cc1cccc(C(=O)NCC(=O)N2CCN(S(=O)(=O)c3ccc4c(c3)OCCO4)CC2)c1 | 6.49
35 | CC(=O)Nc1ccc(S(=O)(=O)NCC2CCC(C(=O)NCCc3ccccc3)CC2)cc1 (centres unmarked) | -4.08
36 | COc1ccc(S(=O)(=O)N2CCCCC2)cc1NC(=O)CCNC(=O)c1ccc(Br)cc1 | 14
37 | Cn1cnc([N+](=O)[O-])c1Sc1ncnc2nc[nH]c12 | 6.98
38 | CC(NC(=O)c1ccc([N+](=O)[O-])cc1Cl)C1CC2CCC1C2 (centres unmarked) | 8.63
39 | CN1CCC(N2CCN(c3cccc(C(F)(F)F)c3)CC2)CC1 | 4.06
40 | Cc1noc(C)c1CSCC(=O)OCc1nc2ccccc2c(=O)n1CC#N | 8.54
41 | Cc1cc(CN(C)Cc2cn(C)nc2-c2ccc(Oc3ccccc3)cc2)on1 | 2.33
42 | CC1(NC(=S)Nc2ccc3ccccc3c2)CCS(=O)(=O)C1 (centres unmarked) | 14.2
43 | CCOc1ccc(-n2c(O)c(C=NCCN3CCNCC3)c(=O)[nH]c2=O)cc1 | 6.88
44 | O=C(c1ccccc1)n1nc(-c2ccccc2)nc1NCc1ccco1 | 10
45 | CCN(CC)C(=O)C1CCN(S(=O)(=O)c2ccc(C3CNC(=O)C3)cc2)CC1 (centres unmarked) | 9.06
46 | COc1ccc(C2/C(=C(\O)c3ccc4c(c3)OCCO4)C(=O)C(=O)N2Cc2ccco2)c(OC)c1 (centres unmarked) | -11.5

Row | SMILES | hERG current change (%, negative = inhibition) at 1uM [%]
47 | CC(C)OC(=O)CC1C(=O)NCCN1C(=O)COc1ccc(C(C)(C)C)cc1 (centres unmarked) | 14.6
48 | COc1ccc(NC(=S)NNc2ccc([N+](=O)[O-])cc2S(=O)(=O)Nc2ccc(C)cc2C)cc1 | 1.69
49 | CN(/N=C/c1cc(Br)cc(Br)c1O)c1ccccc1 | 28.8
50 | Cc1c(C(=O)N2CCOCC2)[nH]c2c1C(=O)CC(c1ccccc1Cl)C2 (centres unmarked) | 2.29
51 | Cc1ccn2cc(CNS(=O)(=O)c3ccc(Cl)s3)nc2c1 | -0.135
52 | CC1(C)S[C@@H]2[C@H](NC(=O)Cc3ccccc3)C(=O)N2[C@H]1C(=O)O | 3.75
53 | S=c1[nH]nc(-c2ccc3ccccc3n2)n1Cc1ccccc1 | 10.9
54 | CCS(=O)(=O)c1ccc(O)c(NC(=O)Nc2ccccc2OC)c1 | 2.26
55 | COc1ccccc1-c1nnc(SCC(=O)O)n1C | 10.3
56 | Cc1nn(CC(=O)N2CCC(N3CCCCC3)CC2)c(=O)c2c1sc1ccccc12 | 2.41
57 | O=C(CSc1nnnn1-c1cccc(O)c1)NC1CC1 | 28
58 | CCSc1nc2ccccc2n1C(=O)c1ccc(S(=O)(=O)N2CCCCC2)cc1 | -4.43
59 | O=C(Cn1cc2c(n1)CCCC2)NC1CCCCCC1 | 6.31
60 | COc1ccc(C2N(C(=O)c3ccccc3)CCN2C(=O)c2ccc(C)cc2)cc1 (centres unmarked) | -4.15
61 | O=C(CCNC(=O)c1ccc([N+](=O)[O-])cc1)Nc1cc(Cl)ccc1N1CCOCC1 | -18.6
62 | COc1ccc(N(C(=O)c2ccco2)C(C(=O)NC2CCCC2)c2cccs2)cc1 (centres unmarked) | -0.12
63 | CCOc1ccc(OCCC(=O)Nc2ccc3c(c2)OCO3)cc1 | 11.1
64 | CN(CC1CCCN(CCc2ccccc2F)C1)C(=O)c1ccoc1 (centres unmarked) | -25.9
65 | Cc1cc(C)cc(-n2c(C)cc(C(=O)CSc3nnnn3C)c2C)c1 | 15.4
66 | N/C(=N\OC(=O)/C=C/c1ccc(Br)cc1)c1ccccn1 | 4.54
67 | COC(=O)c1cc(S(=O)(=O)N2CCCC2)c(Cl)cc1Cl | 8.41
68 | O=C(Cn1nc(-c2ccccc2)ccc1=O)N1CCOCC1 | 1.45
69 | CN(CC(O)COCc1cccs1)C1CCCCC1 (centres unmarked) | 3.27

Row | SMILES | hERG current change (%, negative = inhibition) at 1uM [%]
70 | N/C(=N\OC(=O)c1ccc(Cl)c([N+](=O)[O-])c1)c1ccccn1 | -2.58
71 | O=C(CCC(=O)N1CCSc2ccccc21)NCc1ccccc1 | 7.62
72 | O=C(NCCc1ccccc1)C1CCC(=O)N1CCc1ccccc1 (centres unmarked) | 10.1
73 | Cc1occc1C(=O)N/N=C/c1cccc2ccccc12 | 13.5
74 | COC(=O)CNc1nc(Cl)nc(Nc2ccc(Cl)cc2)n1 | 25
75 | COc1ccc(OC)c(-n2c(=S)[nH]c3cc(C(=O)N(C)Cc4ccccc4)ccc3c2=O)c1 | 10.9
76 | O=C(N/N=C/c1ccncc1)c1ccccn1 | 8.56
77 | O=C(c1ccccc1)N1CCN(S(=O)(=O)N2CCCCCC2)CC1 | 9.57
78 | O=C1CCCC(O)=C1C1C2=C(CCCC2=O)OC2=C1C(=O)CCC2 | 17
79 | Nc1ncc(-c2ccccc2)n1CC1CCCO1 (centres unmarked) | 8.5
80 | OCC1C2c3ccccc3C(c3ccccc32)C1CO (centres unmarked) | 11.6
81 | CCOC(=O)CCC(=O)Nc1ccc([N+](=O)[O-])cc1C | 4.89
82 | CC(C)CNC(=O)c1cc2nc(C3CC3)cc(C(F)(F)F)n2n1 | 15.5
83 | CCOC(=O)c1nc(-c2ccccc2)oc1N(C)C | -3.84
84 | CCC(C(=O)N1CCC(C(N)=O)CC1)n1nc(C)n2c(cc3occc32)c1=O (centres unmarked) | -1.4
85 | CS(=O)(=O)NCCCNc1ccc(C(F)(F)F)cc1[N+](=O)[O-] | 0.672
86 | O=c1c(C=NCCCO)c(-c2ccccc2)[nH]n1-c1nc2ccccc2s1 | -2.36
87 | Nc1ncc(Br)cc1Br | 11.1
88 | O=C(c1ccccc1)C1CN(Cc2ccccc2)CCC1(O)c1ccccc1 (centres unmarked) | 14.3
89 | CN(C)c1ccc(C(=O)NC2(N3CCC3=O)CCCC2)cc1 | 11.2

From paper PMC4336329 (PLoS ONE, 2015)
